The supplement of paper PMC4967469
A lower IC50 marks a more sensitive line; a fit beyond the top or the lowest dose is shown as a bound at that dose. AUC is the area under the same curve over the 256-fold range up to the top dose, as a fraction; it is 1 without any effect and falls as sensitivity rises. For part of these data: Any top dose called inferred was derived from the fitted curves, not read from the paper. For part of these data: An entry number marks a drug with two screens in the source, which often give different values.

Experiments:
Experiment in all cases: Viability of human cancer cell lines after 72 h of drug (GDSC screen)
SNX-2112 = compound: CC1(C)CC(=O)c2c(C(F)(F)F)nn(-c3ccc(C(N)=O)c(N[C@H]4CC[C@H](O)CC4)c3)c2C1 [SNX-2112]; conditions: top dose 2.56 µM
Procedure: (§1)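 Human cancer cell lines in 384-well plates, medium with 10% serum, drug for 72 h over a 256-fold dose range (nine 2-fold or five 4-fold steps up to the top dose). Adherent lines were fixed and stained with the nucleic acid dye Syto60, suspension lines read with resazurin; signal relative to control wells, capped at 0 and 100%. One two-parameter sigmoid per drug and line, fitted in a mixed model over all curves with the slope shared within a line.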

Vinblastine = compound: CC[C@]1(O)C[C@@H]2CN(CCc3c([nH]c4ccccc34)[C@@](C(=O)OC)(c3cc4c(cc3OC)N(C)[C@H]3[C@@](O)(C(=O)OC)[C@H](OC(C)=O)[C@]5(CC)C=CCN6CC[C@]43[C@@H]65)C2)C1 [Vinblastine]; conditions: top dose 0.1 µM; top dose inferred
Procedure: as §1

Afatinib = compound: CN(C)C/C=C/C(=O)Nc1cc2c(Nc3ccc(F)c(Cl)c3)ncnc2cc1O[C@H]1CCOC1 [Afatinib]
Procedure: as §1

PF-562271 = compound: CN(c1ncccc1CNc1nc(Nc2ccc3c(c2)CC(=O)N3)ncc1C(F)(F)F)S(C)(=O)=O [PF-562271]; conditions: top dose 2.56 µM; top dose inferred
Procedure: as §1

XMD13-2 = compound: O=C(NC1CC1)c1cccc(-c2ccc3c(NC(=O)C4CC4)n[nH]c3c2)c1 [XMD13-2]; conditions: top dose 10.24 µM; top dose inferred
Procedure: as §1

[1] = top dose 0.5 µM, screen: GDSC drug entry 1032
[2] = top dose 10 µM, screen: GDSC drug entry 1377, top dose inferred

Cell Line | AUC (SNX-2112) | IC50 (SNX-2112) | AUC (Vinblastine) | IC50 (Vinblastine) | AUC (Afatinib; [1]) | IC50 (Afatinib; [1]) | AUC (Afatinib; [2]) | IC50 (Afatinib; [2]) | AUC (PF-562271) | IC50 (PF-562271) | AUC (XMD13-2) | IC50 (XMD13-2)
SNU-387 (liver, adherent) | 0.461 | 123 nM | 0.551 | 8.8 nM | 0.983 | > 500 nM | 0.974 | > 10000 nM | 0.811 | 1600 nM | 0.918 | > 10200 nM
SNU-423 (liver, adherent) | 0.439 | 106 nM | 0.661 | 19 nM | 0.983 | > 500 nM | 0.947 | > 10000 nM | 0.863 | > 2560 nM | 0.919 | > 10200 nM
SNU-449 (liver, adherent) | 0.787 | 1230 nM | 0.902 | > 100 nM | 0.947 | > 500 nM | 0.882 | > 10000 nM | 0.893 | > 2560 nM | 0.98 | > 10200 nM
SNU-C1 (large intestine, suspension) | 0.867 | > 2560 nM | 0.797 | 75 nM | 0.973 | > 500 nM | 0.943 | > 10000 nM | 0.902 | > 2560 nM | 0.978 | > 10200 nM
SR (lymphoid neoplasm, suspension) | 0.127 | 12.6 nM | 0.212 | 1 nM | 0.988 | > 500 nM | 0.938 | > 10000 nM | 0.928 | > 2560 nM | 0.58 | 1030 nM
ST486 (Burkitt lymphoma, suspension) | 0.214 | 26.3 nM | 0.624 | 13.1 nM | 0.99 | > 500 nM | 0.989 | > 10000 nM | 0.862 | 1790 nM | 0.75 | 3010 nM
SU8686 (pancreas, adherent) | 0.847 | 2240 nM | 0.67 | 19.8 nM | 0.94 | > 500 nM | 0.982 | > 10000 nM | 0.942 | > 2560 nM | 0.959 | > 10200 nM
SU-DHL-4 (B-cell lymphoma, suspension) | 0.271 | 44.6 nM | 0.918 | 73.2 nM | 0.997 | > 500 nM | 0.997 | > 10000 nM | 0.997 | > 2560 nM | 0.947 | 9710 nM
SU-DHL-5 (B-cell lymphoma, suspension) | 0.2 | 28.4 nM | 0.273 | 1.72 nM | 0.988 | > 500 nM | 0.547 | 812 nM | 0.897 | 1780 nM | 0.844 | 4800 nM
SU-DHL-6 (B-cell lymphoma, suspension) | 0.246 | 38 nM | 0.303 | 2.06 nM | 0.984 | > 500 nM | 0.995 | > 10000 nM | 0.901 | 1790 nM | 0.833 | 4390 nM
SU-DHL-16 (B-cell lymphoma, suspension) | 0.162 | 23.2 nM | 0.443 | 4.54 nM | 0.996 | > 500 nM | 0.993 | > 10000 nM | 0.848 | 1170 nM | 0.852 | 4800 nM
